# From the supplement of paper PMC10338343
# ± gives the standard deviation. Only a part is listed here, and it is no random draw.
# Tested on: MIWI (PIWIL1) piRISC loaded with L1MC piRNA (30 nt)
# Experiment: pre-steady-state target cleavage rate (min^-1); MIWI and MILI are mouse PIWI proteins and EfPiwi is from a freshwater sponge; tags in brackets are library labels; higher = faster piRNA-guided slicing of the target
# Settings: guide: L1MC piRNA 5'p-UAACUAAAUACUAUGCAAGCUGUAGGUCCU
# Outline: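 Cleave-'n-Seq: a transcribed, DNA-blocked target RNA library (0.1 nM) was mixed with 1 nM active affinity-purified piRISC carrying one synthetic guide, with or without 500 nM GTSF1 partner protein, in HEPES–potassium acetate buffer at 33 °C for 0–8 or 0–960 min. Uncleaved targets were sequenced and normalised to depth and to weakly complementary targets. Three trials were pooled, and k3 was capped at 0.0001 min^-1. The pre-steady-state cleavage rate came from a burst-and-steady-state fit.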
# [1] = auxiliary factor: 500 nM mouse GTSF1
# [2] = auxiliary factor: none (no GTSF1)
Sequence,pre-steady-state target cleavage rate [1],pre-steady-state target cleavage rate [2]
UCCUGGAUCUGCUUGCAUAGUAUUUAGAAA,0.117 ± 0.024,0.00445 ± 0.0025
UCCUGGAUGAGCUUGCUUAGUAUUUAGAUA,0.252 ± 0.031,0.00866 ± 0.0032
UCCACCUACAGCUAGCAUAGUAAUUAGUUA,0.613 ± 0.035,0.00603 ± 0.0022
UGGACCUACAGCUUGGAUUGUAUUUAGUUA,0.704 ± 0.035,0.0134 ± 0.0038
UCCUGGAUCAGGUUGCAUAGUAUUUAGAUA,0.165 ± 0.027,0.00293 ± 0.0029
UCCUGCAACAGCUUGCAUAGUAUUUUGUUA,0.657 ± 0.056,0.0348 ± 0.0074
AGGACCAACAGCUUGCAUAGUAUUUAGAAA,0.624 ± 0.071,0.033 ± 0.012
ACGACCUACAGCUUGCAUAGUAUUUACAAA,0.565 ± 0.054,0.0113 ± 0.0046
UGGACCUACAGCUUACAUAGUAUUUAGUUA,1.53 ± 0.079,0.0508 ± 0.0082
UCCACCUACUGCUUGCAUAGUUUUUAGUUA,0.236 ± 0.02,0.0184 ± 0.0025
AGGACCUACAGCUUGCUUUGUAUUUAGUUA,0.264 ± 0.025,0.00824 ± 0.0023
UGGACCUAGAGCUUGCAUAGUAAUUAGUUA,0.618 ± 0.045,0.0254 ± 0.0053
UCCUGGAUGUCGUUGCAUAGUAUUUAGUUU [g2:g18:cont:t1U],0.0132 ± 0.0047,0.00361 ± 0.0031
UCCACCUACUGCUUGCAUAGUAUAUAGUUA,0.263 ± 0.029,0.0203 ± 0.0038
UCCACGAACAGCUUGCAUAGUAUUUUCAAA,0.284 ± 0.044,0.00307 ± 0.0029
UCGACGUAGAGCUUGCAUAGUAUUUAGUUA,1.11 ± 0.046,0.0423 ± 0.0084
UGGACCUACAGCUUGCAUACUAUUUACUUA,0.132 ± 0.015,0.0153 ± 0.0035
UAGACCUACAGCUUGCAUAGUAUUUAGUUA,1.31 ± 0.043,0.0672 ± 0.011
UCCUGGUUGAGCUUGCAUAGUAUUUACAAA,0.0391 ± 0.012,0.00408 ± 0.0037
UCCACCUACAGCAUGCUUAGUAUUUAGUUA,0.723 ± 0.041,0.0103 ± 0.0018

Sequence,pre-steady-state target cleavage rate [1],pre-steady-state target cleavage rate [2]
UCCUGGAACAGCUUGGUUAGUAUUUAGUUA,0.95 ± 0.041,0.0108 ± 0.0031
UGGACCUUGAGCUUGCAUAGUAUUUAGUAA,0.766 ± 0.065,0.0205 ± 0.0051
UCCACCUACAGCUUGAUAGUAUUUAGUUA,0.834 ± 0.042,0.00512 ± 0.0023
UCCUGGUUGAGCUUGCAUAGUAUUUUCAAA,0.0288 ± 0.011,0.0031 ± 0.0029
UGGACCUACAGCUUGCAUAGUAUUAUGUUA,0.333 ± 0.039,0.0173 ± 0.0035
UGGACCUACACCAUGCAUAGUAUUUAGUUA,0.769 ± 0.038,0.0179 ± 0.0032
UCCACCUACUCCUUGCAUAGUAUUUAGUUA,0.991 ± 0.034,0.043 ± 0.0071
AGGACCUACAGGCUUGCAUAGUAUUUAGUUA,1.16 ± 0.07,0.0646 ± 0.01
UCCUGGAUCAGCUUGCAUAGUUUUAAGUUA,0.0548 ± 0.01,0.00852 ± 0.003
UCCUGGAACAGCUUGCAUAGUAUUAACUUA,0.135 ± 0.027,0.00545 ± 0.0032
UCCUGGAACACCUUGCAUAGUAUUUAGUUA,0.596 ± 0.053,0.0159 ± 0.0034
UCCUCCUACAGCUGCAUAGUAUUUAGUUA,1.03 ± 0.041,0.00391 ± 0.0025
AGGACCUACUGCUUGCAUAGUAUUUAGUUA,1.21 ± 0.049,0.0777 ± 0.012
AGGAGCUACAGCUUGCAUAGUAUUUAGUAA,1.02 ± 0.092,0.0616 ± 0.012
UCCUGGAUGAGCUUGCUUAGUAUUAAGUUA,0.118 ± 0.018,0.00713 ± 0.0029
UCCACCUACAGCUUGCUAAGUAUUUAGUUA,0.214 ± 0.016,0.00292 ± 0.0016
UGGACCAACAGCUUGCAUAGUUUUUAGUUA,0.398 ± 0.019,0.0421 ± 0.0087
UCCUGGUACAGCAUUGCAUAGUAUUUAGUUA,0.494 ± 0.057,0.0223 ± 0.0052
UCGACCUACAGCUUGCAUAGUAUUUAGUUU [g2:g28:cont:t1U],1.75 ± 0.067,0.158 ± 0.033
UCCUGCUACAGCUUGCAUAGUAUAUACUUA,0.111 ± 0.017,0.00755 ± 0.0036

Sequence,pre-steady-state target cleavage rate [1],pre-steady-state target cleavage rate [2]
UCGACCUACAGCAUGCAUAGUAUUUAGUUA,1.48 ± 0.049,0.0548 ± 0.013
UCCUGGAUGUCCUUGCAUAGUAUUUAGAUUA,0.0221 ± 0.0073,0.00391 ± 0.0026
UCCUGGAUGUGCUUGCAUAGUAUUUAGUUG [g2:g20:cont:t1G],0.366 ± 0.031,0.0463 ± 0.012
UCCUGCUACAGCUUGCAUAGUAUUUAGUAA,0.435 ± 0.041,0.0184 ± 0.0032
UGGACCUACAGCUUGCAUAGUAUUAUCUUA,0.156 ± 0.028,0.006 ± 0.0019
UCCUGGAUCAGCUUGCAUACUAUAUAGUUA,0.0652 ± 0.0081,0.00966 ± 0.0032
UCCUGGAUGUGCUUGCAUAGUCUUUAGUUA,0.151 ± 0.016,0.0403 ± 0.0097
UCCUGGAUCAGCUAGCAUACUAUUUAGUUA,0.293 ± 0.024,0.00774 ± 0.0028
UCCUGCUAGUGCUUGCAUAGUAUUUAGUUA,0.177 ± 0.025,0.021 ± 0.0046
UGGACCUACAGCUUGCUAAGUAUUUAGUAA,0.0584 ± 0.0078,0.00222 ± 0.0019
UGGACGAACAGCUUGCAUAGUAUUUUCAAA,0.191 ± 0.026,0.0045 ± 0.0024
UCGACCUACAGCUUGCAUAGAAUUUAGAUA,0.314 ± 0.044,0.0119 ± 0.0039
AGGACCUACAGAUUGCAUAGUAUUUAGUUA,1.24 ± 0.091,0.0822 ± 0.017
UGGACCUACAGCUUGCAAAGUAUAUAGUUA,0.895 ± 0.057,0.0204 ± 0.0062
UCCUGGAUCAGCUUGCAUAGUAUAUACUUA,0.0572 ± 0.01,0.00554 ± 0.0023
AGGACCUACACCAUGCAUAGUAUUUAGUUA,0.846 ± 0.039,0.0249 ± 0.0046
UCCUCCUACACCUAGCAUAGUAUUUAGUUA,0.657 ± 0.057,0.0111 ± 0.0022
UCGUCCUACAGCUUGCAUAGUAUUAAGUUA,0.442 ± 0.035,0.019 ± 0.0034
AGGACCUACUCGUUGCAUAGUAUUUAGUUA,0.934 ± 0.038,0.0301 ± 0.0061
AGGACCUACAGCUUGCAUAGUAUUUGAGUUA,0.815 ± 0.084,0.0761 ± 0.016
